These results are taken from US20130244255A1, “ANTIBODIES DIRECTED TO GPNMB AND USES THEREOF” (priority 2006, published 2013).

The target of experiment [1] is T1, GPNMB (Homo sapiens, UniProt Q14956).
T1 construct: we cloned the human CG56972 extracellular domain (ECD; aa 23-480); made in house; host or cells: HEK 293 cells
T1 sequence (Q14956 23-492): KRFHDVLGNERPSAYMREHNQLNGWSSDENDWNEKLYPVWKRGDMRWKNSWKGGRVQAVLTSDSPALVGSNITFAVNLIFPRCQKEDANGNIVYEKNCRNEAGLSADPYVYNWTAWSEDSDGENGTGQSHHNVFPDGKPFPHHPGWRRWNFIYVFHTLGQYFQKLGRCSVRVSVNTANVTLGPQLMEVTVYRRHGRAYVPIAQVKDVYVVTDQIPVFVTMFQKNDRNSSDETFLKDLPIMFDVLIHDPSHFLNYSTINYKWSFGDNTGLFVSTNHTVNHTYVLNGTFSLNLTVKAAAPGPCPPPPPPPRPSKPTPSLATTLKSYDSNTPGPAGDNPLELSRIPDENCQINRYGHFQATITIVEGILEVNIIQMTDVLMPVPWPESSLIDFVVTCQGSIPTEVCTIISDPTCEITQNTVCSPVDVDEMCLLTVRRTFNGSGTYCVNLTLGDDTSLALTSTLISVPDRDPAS
The experiment can be described thus: Binning of antibodies (Luminex competitive binding). Conditions: three bins of six anti-GPNMB antibodies. The method, then:
Certain antibodies, described herein were binned in accordance with the protocol described in U.S. Patent Application Publication No. 20030157730. M×hIgG conjugated beads are prepared for coupling to primary antibody. The volume of supernatant needed is calculated using the following formula: (n+10)×50 μL (where n=total number of samples on plate). Where the concentration is known, 0.5 μg/mL is used. Bead stock is gently vortexed, then diluted in supernatant to a concentration of 2500 of each bead per well or 0.5×10^5/mL and incubated on a shaker in the dark at RT overnight, or 2 hours if at a known concentration of 0.5 μg/mL. Following aspiration, 50 μL of each bead is added to each well of filter plate, then washed once by adding 100 μL/well wash buffer and aspirating. Antigen and controls are added to filter plate 50 μL/well then covered and allowed to incubate in the dark for 1 hour on shaker. Following a wash step, a secondary unknown antibody is added at 50 μL/well using the same dilution (or concentration if known) as is used for the primary antibody. The plates are then incubated in the dark for 2 hours at RT on shaker followed by a wash step. Next, 50 μL/well biotinylated m×hIgG diluted 1:500 is added and allowed to incubate in the dark for 1 hour on shaker at RT. […] Following a wash step, each well is resuspended in 80 μL blocking buffer and read using Luminex. […]

Experiment [2] has as its target T2, cell membrane-bound GPNMB protein (Homo sapiens, UniProt Q14956).
T2 construct: endogenous in cells; host or cells: UACC-62 and a panel of melanoma lines (A5)
T2 sequence (Q14956 23-572): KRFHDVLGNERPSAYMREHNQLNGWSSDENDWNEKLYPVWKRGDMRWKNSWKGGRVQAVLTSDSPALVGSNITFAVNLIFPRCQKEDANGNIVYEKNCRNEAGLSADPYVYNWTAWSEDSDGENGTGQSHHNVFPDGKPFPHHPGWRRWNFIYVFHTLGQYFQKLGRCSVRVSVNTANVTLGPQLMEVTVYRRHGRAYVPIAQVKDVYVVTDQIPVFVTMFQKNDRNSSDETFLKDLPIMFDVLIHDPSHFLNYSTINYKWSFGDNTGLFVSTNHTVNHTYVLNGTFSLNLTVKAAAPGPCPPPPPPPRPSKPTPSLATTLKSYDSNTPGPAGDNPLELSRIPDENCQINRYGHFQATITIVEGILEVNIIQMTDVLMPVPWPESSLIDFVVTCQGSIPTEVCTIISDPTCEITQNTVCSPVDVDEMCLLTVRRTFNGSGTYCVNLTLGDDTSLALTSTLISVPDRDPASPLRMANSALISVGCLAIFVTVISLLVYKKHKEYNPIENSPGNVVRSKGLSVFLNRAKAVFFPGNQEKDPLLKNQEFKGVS
The experiment can be described thus: FACS analysis of anti-GPNMB antibody binding to melanoma cell lines.

B1: 2.3.1: human anti-GPNMB antibody; VH SEQ ID NO: 200, VL SEQ ID NO: 209 (antibody, listed as Homo sapiens, V domains shown)
VH: [about 100 residues not listed]DFFGSGSLLYFDYWGQGTLVTVSSA
VL: DIVMTQTPLSLSVTPGQPASISCKSSQSLLHSGGKTYLYWYLQRPGQPPQLLIYEVSNRFSGVPDRFSGSGSGTDFTLKISRVEAEDVGVYYCMQSIHLPLTFGGGTKVEIKR
Regarding B1, the bin result in experiment [1] is listed as “Bin 2”. For the same molecule, the “binding to GPNMB expressing cells by FACS (in words)” value in experiment [2] is “does not bind to GPNMB expressing cells”.
